The supplement of paper PMC11417369
± gives the standard deviation of the averaged measurements. The list shows a part of the results.

Tested on: PfAP2-EXP AP2 domain (GST-tagged)
Test: gcPBM binding intensity (ln(normalized median fluorescence intensity)); higher = stronger DNA binding
How it was run: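 Alexa488 anti-GST antibody, scanned at 488 nm, detected GST-tagged P. falciparum DNA-binding domains that had been expressed in E. coli and incubated for 1 h on an Agilent 4 × 180k array. The array carried primer-extended double-stranded 36-bp intergenic genomic probes and negative controls. Binding intensity is the highest Masliner-normalised natural-log median intensity across replicate spots of either orientation of each probe.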

Row | Sequence | gcPBM binding intensity (ln)
1 | AATATATATATATATTGTACACACATTTATGCATAT [XGTACX_site6856] | 8.9 ± 0.29
2 | TTACAACCATAAAATGCATGTAAATGACAAAAAAAA [TGCATGCA_site944] | 8.81 ± 0.3
3 | TAAATTAAATATTATAAACACACATATATATTATTT [CACACA_site8189] | 8.28 ± 0.47
4 | TTAAAAAATTATTGTAGTACATAGGAAATGAAAAAA [XGTACX_site155] | 8.83 ± 0.14
5 | AAAAAAAAAAAATGAGCACACATAAATAAAAACAAA [CACACA_site8447] | 8.7 ± 0.48
6 | TATATACATAAAATTTGTACATATATATATATATAT [XGTACX_site3214] | 10.1 ± 0.51
7 | ATATAAATAAATACAACACACATGTCATATCTAAAT [CACACA_site7533] | 8.38 ± 0.42
8 | ATATTATTCTTATATTCACACAGTTTATATTTCCGT [CACACA_site5653] | 8.85 ± 0.45
9 | AAATTACATACACGCGCACACACAAAAAAAAAAAAA [CACACA_site1335] | 8.61 ± 0.45
10 | ATATTATAGTATATAACACACATTTTTCATAACACT [CACACA_site6331] | 8.46 ± 0.29
11 | TATATAATTAAAATAACACACATATATAAAAATATA [CACACA_site2990] | 8.52 ± 0.36
12 | TGGCAAAATAGGCACACACACATATACATATATATT [CACACA_site1059] | 8.54 ± 0.53
13 | GTATATATATTTCTTTAATAATTAAATTATAAATAT [CACACA_negctrl_site640] | 8.47 ± 0.4
14 | TATTATATCTTATATGTATATTCCCACAAATTATAT [GTGCAC_negctrl_site362] | 8.47 ± 0.4
15 | AATATATAAACACGTACACACACATATATGTATATA [CACACA_site9168] | 8.73 ± 0.43
16 | AATTTAAATATTTGTTGTACGTATTTATATATTCTT [XGTACX_site3623] | 8.72 ± 0.4
17 | CATGCCGTTAAATTATGTACTTATTATTTTAATATG [XGTACX_site4209] | 8.47 ± 0.36
18 | ATAATATATAAACACACACACATATATAAATACATT [CACACA_site4466] | 8.57 ± 0.63
19 | AACAATTATTTGTCGACACACGTATATGTTATTTAG [CACACA_site5046] | 8.89 ± 0.4
20 | TATTTATATTCCTTTACACACTCCATCTTATATCCA [CACACA_site3604] | 8.89 ± 0.55
21 | ATTTTTGTTATTACATGTACCCATAATTATTATTAA [XGTACX_site3558] | 9.22 ± 0.44
22 | ACCGTGGGAGGACACACACACACACCCACATATATA [CACACA_site4339] | 8.54 ± 0.4

Row | Sequence | gcPBM binding intensity (ln)
23 | ACAAAAAAATGAAAAGAAAAAGATATACCCCAATAT [CACACA_negctrl_site509] | 8.99 ± 0.8
24 | ATATCCATAATAAAAACATGCAACAGAAAAAAAAAA [TGCATGCA_site497] | 8.9 ± 0.14
25 | AAGAGAAATATATATTGTACAATAATTTTATTTGGT [XGTACX_site7642] | 8.45 ± 0.2
26 | TATATATTAATATTTACACACATGCGCACCCATAAA [CACACA_site2410] | 9.75 ± 0.85
27 | TTCCAAAAAATTATTACACACATATGAGCACATATA [CACACA_site4543] | 8.32 ± 0.41
28 | TACGGTTGTTTATTTTGTACGTAAAAAATATATTAT [XGTACX_site8393] | 9.04
29 | TATTAATTAAAAAAATGTACATAATTATAAATTTTT [XGTACX_site7994] | 8.37 ± 0.35
30 | TAATATACATATATATGTACATATATATATATATAT [XGTACX_site2684] | 9.93 ± 0.35
31 | AAGGGTTATTTGATATGTACTTATATATATATATAA [XGTACX_site1659] | 8.53 ± 0.41
32 | AAGGTGGAAACAATTACACACACACTAATAAAAAAA [CACACA_site9051] | 8.71 ± 0.53
33 | TTTTTTAAAAGAAAATAAAAAATAAGCATAATATGA [CACACA_negctrl_site1574] | 8.51 ± 0.48
34 | AAGTACAAATTTAATAAAAATGAAACAAATATGTAT [TGCATGCA_negctrl_site94] | 8.47 ± 0.43
35 | ATGGAATTTTTAGAATATGGATAATGTTACTTAAGT [CACACA_negctrl_site494] | 8.36 ± 0.46
36 | GTTATATATATATATATATATATATATATTTTTTTT [GTGCAC_negctrl_site597] | 8.84 ± 0.15
37 | TATATCGTTAATTATACACACATAAAATTAAACTTT [CACACA_site1274] | 8.25 ± 0.21
38 | AAAAACCATGGGCACACACACATAATATATAATATA [CACACA_site1425] | 8.89 ± 0.55
39 | TAAAAAAAGGAAAACATACAATTCTATTTTTCAATA [CACACA_negctrl_site474] | 8.12 ± 0.46
40 | AAATTAAAAAAGAATATACACACCAAAACTGTTTGT [CACACA_site958] | 8.25 ± 0.45
41 | TATAATAATACTTATTGTACGATTAGCTTAATTCGT [XGTACX_site15] | 8.32 ± 0.35
42 | TATATAAATAGATACACACATACATACATACATACA [CACACA_site260] | 9.16 ± 0.16
43 | ACCATACATACATACACACACACACGCATATTTATA [CACACA_site7386] | 9.05 ± 0.6
44 | TAATTTTAAATATCTTCACACATTATATTTTTATAT [CACACA_site5411] | 8.34 ± 0.42

Row | Sequence | gcPBM binding intensity (ln)
45 | AAGTAGTGTTAATACTGTACTTATATTTTTTATTAT [XGTACX_site8264] | 8.33 ± 0.18
46 | TCATCTTTTATATGTTGTACGTATTTTCATTTATAT [XGTACX_site4855] | 8.93 ± 0.28
47 | ATTTAAAAAAGAAAGGTGCATTTCAATAATGTAAAA [GTGCAC_site9585] | 8.62 ± 0.15
48 | TTGATATTTTTTTTATGTACACATGTTCATATTTTT [XGTACX_site8095] | 8.81 ± 0.37
49 | TCACATATTATCTTTACACACTATAAATAAGTTTTA [CACACA_site7335] | 8.56 ± 0.46
50 | ATAATTTGATGGTTAACACACATATAGATTATAGAT [CACACA_site7200] | 8.52 ± 0.45
51 | TTTTTTTCTTTTTGAGGTACGCATTATTTTATTTGT [XGTACX_site6996] | 8.49 ± 0.43
52 | AAAAAAATGAAACACACACACACATATATATATATA [CACACA_site1043] | 10.1 ± 0.26
53 | AAACAATTACACATATGTATGTATATATATATATAT [TGCATGCA_negctrl_site536] | 10.1 ± 0.42
54 | ACAAAGTTTATAGAACGTACATACTTACACATATTT [XGTACX_site556] | 8.41 ± 0.51
55 | TTATTATATATATCTCGTACGTGTATACGCCTACCA [XGTACX_site8375] | 8.87 ± 0.45
56 | TGTTATATTTCAAATTGTACTAATCTAATTAATAAA [XGTACX_site604] | 8.19 ± 0.33
57 | AAAGATTGCGATGGTTGTACTTTTCTATATTTTTTT [XGTACX_site3492] | 8.63 ± 0.59
58 | CTAAAATACGAACACACACACACATATAAATAAATA [CACACA_site7872] | 8.77 ± 0.57
59 | TATACTTCTTATTAAATGAGTAGTATATATTATATA [TGCATGCA_negctrl_site299] | 8.06 ± 0.37
60 | CTATTTCATAAACACACACACACAAACAAACATATA [CACACA_site8234] | 8.88 ± 0.58
61 | AAATAATACCAAATGTGTACTTATTTCACTAATAGA [XGTACX_site7571] | 8.38 ± 0.28
62 | GGAATAATAAAATTATGTACATAAGAATCATATACT [XGTACX_site6810] | 8.65 ± 0.4
63 | ATATATACTTATATTTGTACACAAAGGTATCTCTAG [XGTACX_site3805] | 8.49 ± 0.37
64 | AGTTTTATATAAGCTTGTACTTAATATTATTAAGTA [XGTACX_site5919] | 8.56 ± 0.23
65 | AAAAAAAAAAATCGCTGTACTTCTAAAGGTGTGTTA [XGTACX_site843] | 8.29 ± 0.52
66 | CAAACAAACGGACACACACACACACCCAAAAATGAT [CACACA_site5363] | 8.67 ± 0.48

Row | Sequence | gcPBM binding intensity (ln)
67 | ACGGACTTAAAATACACACACACCAAAAAAAAAAAA [CACACA_site7304] | 8.41 ± 0.63
68 | TTTGATAAATTATACACACACAATATATATAAAATA [CACACA_site2023] | 8.44 ± 0.43
69 | AATAATATATAATAATGTACAAAAAAAAAAAAAAAA [XGTACX_site4158] | 8.23 ± 0.53
70 | AAGCTTTGGTGTTATGCATGCAATTAAACTATTAGT [TGCATGCA_site277] | 9.68 ± 0.16
71 | TTTTATTTTTTAGTAGTACACACTTTTTGTACCTTT [CACACA_site599] | 8.71 ± 0.41
72 | TATTATATATATAACTGTACGTTTATAATATAAAAA [XGTACX_site3778] | 8.31 ± 0.45
73 | TTTCTTTTTTTTTTTTGTACATATTTTAATTATTTT [XGTACX_site8676] | 8.68 ± 0.47
74 | TATTTTAATTAATATACACACGCTTATATATATATA [CACACA_site7909] | 9.85 ± 0.18
75 | TACAAACTATGATGCACACATATATATCTGTATCCA [CACACA_site4809] | 8.66 ± 0.2
76 | AGTGTTAAAAATGAGGGTACATATAAAATACAGTTC [XGTACX_site457] | 8.85 ± 0.4
77 | TAATCATTTTAGCTTACACACAAAATTTGGTTATAA [CACACA_site5604] | 8.37 ± 0.41
78 | ACAGGATTGGTTCAAACACACATATTATATGACTAT [CACACA_site4536] | 8.57 ± 0.68
79 | ATTCCACCTTAAAACTGTACTTTCTCAATCTTTTAT [XGTACX_site796] | 8.95 ± 0.46
80 | CATATATAAATATGTATGCACTTTAACAAAATGTAT | 8.39 ± 0.16
81 | ATATTTATTTATATGTGTACTTATGTTTATATAAAA [XGTACX_site4250] | 8.56 ± 0.42
82 | GGAATTATAATAAATGGTACACATAAAAAAAAAAAA [XGTACX_site8343] | 8.77 ± 0.59
83 | ATAAAGTAGATATTTTGTACGCAGGTTGTATATATT [XGTACX_site1464] | 8.75 ± 0.31
84 | TACTTTACTAATATATATAGGAGAGTATACATGAAA [CACACA_negctrl_site63] | 8.63 ± 0.48
85 | ATTATGTTATATACACGTACGTGTGCTTTATAATTA [XGTACX_site2728] | 9.02 ± 0.33
86 | TAATAAATAGGACACACACACATATATATATATTAT [CACACA_site4891] | 8.87 ± 0.52
87 | AAAGAAGGATAATAATGTACAAGCAAAAAAATAAAA [XGTACX_site466] | 8.88 ± 0.19
88 | AATATGTGAATATAATCACACACAATACGGAAACAC [CACACA_site8875] | 9.37 ± 0.22
